# According to the supplement of paper PMC3334620:
# In all, about 33,000 sequences were measured (“E-score (-0.5 to 0.5)”: median about -0.056, highest 2% from about 0.38 on). The list shows a part of the results.
# Biological target: Stb4 (UniProt P50104)
# Assay: PBM E-score (8-mer binding enrichment) (E-score (-0.5 to 0.5)); higher = stronger / more preferred TF binding; most listed sequences are background and not binding sites
# Settings: protein concentration: 200 nM; construct: GST-DNA-binding domain
# Method in brief: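 Universal all-10-mer Agilent arrays, fresh or stripped once, were converted to double-stranded form by primer extension. GST-tagged yeast transcription factors from PURExpress in vitro transcription/translation, full-length or DNA-binding domain only, were applied at about 100-200 nM and detected with fluorescent anti-GST. After masliner normalisation, the Universal PBM Analysis Suite scored each ungapped eight-base word together with its reverse complement by E-score.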
row,Sequence,PBM E-score
1,TAGAAGGA,-0.136
2,AGGCTCTG,-0.392
3,ACACATGA,-0.315
4,ATAGCGTG,-0.0897
5,ATTGATTC,0.126
6,AGGATAGC,0.206
7,TCAACTGA,-0.12
8,AAATGGTG,-0.00049
9,ACCGTCTG,-0.153
10,TATCCAGA,-0.00856
11,CCGGGCCG,0.382
12,ACTGTATC,-0.198
13,AACGCACC,-0.0468
14,ATACAGTC,-0.205
15,GGAAATAA,0.226
16,AAAAGGGG,-0.145
17,ATCTTCGC,0.016
18,ATGGAATG,0.193
19,TCGTAGAA,-0.165
20,ATAGGTGC,-0.156
21,CCCCGGCA,0.18
22,CATTACAG,-0.281
23,AGGCATAG,-0.118
24,CGAGATAA,0.148
25,CGGGTTAA,0.342

row,Sequence,PBM E-score
1,CGCCATCA,-0.149
2,GGGGTGTA,-0.0246
3,AGCACCTA,-0.196
4,CATGACGG,0.018
5,AGCACAAG,-0.176
6,CGCGCCCG,0.215
7,ACGCTCAA,-0.263
8,AAGCCTGT,-0.0187
9,CGCCGCAC,-0.00742
10,CGACTGTC,-0.134
11,CGCAAATC,0.0403
12,CTGCCACA,-0.128
13,GTTACCTA,-0.218
14,CAGGCTAA,-0.169
15,CGAAAACA,0.123
16,AGATCCGA,0.477
17,ATTTCCGC,0.307
18,CGAGAGCA,0.173
19,AACCGGTC,0.178
20,CTTGAAAA,-0.128
21,AATTTCCC,0.142
22,AGACCGGA,0.238
23,ATCCCCTA,-0.0794
24,ACGAGATG,-0.03
25,GCTCTCTA,-0.162

row,Sequence,PBM E-score
1,GCGTAAAA,0.0254
2,ATGCGATG,-0.125
3,CGTTGAAA,-0.0522
4,CTTTTAGC,-0.184
5,TCACCAAA,-0.199
6,CCACTGAA,-0.0394
7,CATTAGCC,0.0405
8,AGCCGACC,0.293
9,GCGAGCAA,-0.172
10,CTCTAAAC,-0.139
11,AACTCTAA,0.0717
12,GGATGATA,0.0749
13,CTGGCCAG,-0.213
14,CGGCAGAG,0.165
15,AAGTCATG,0.0257
16,ACACATTC,0.0594
17,CACTGAGA,-0.289
18,AAATGAGA,-0.234
19,AGAGGGAA,-0.182
20,CCGCAACC,0.225
21,AATCGTTG,-0.121
22,ATCCCGAA,0.432
23,TAAATTGA,-0.112
24,AGAGCATG,-0.348
25,AATGTTCT,-0.276

row,Sequence,PBM E-score
1,CTACTAAG,-0.0404
2,GTAGTCTA,-0.131
3,CGGTACTA,0.228
4,TGCATACA,0.0395
5,GCGGACGA,0.182
6,ACCTGAAG,-0.127
7,AGCGCGTA,-0.123
8,AAATAGGT,-0.163
9,AGTAAACT,0.0611
10,GAAAGCTA,0.0825
11,AGGGGTAG,0.019
12,AGACAGTA,-0.0155
13,GATTTTCA,0.179
14,AACGTCTG,-0.0132
15,AATATCAT,-0.053
16,TCCACAAA,0.0358
17,ACTCAACT,0.0475
18,AATCCTAA,-0.168
19,AAGCCACT,-0.215
20,ACCCCTCC,0.0757
21,ACGAGACT,-0.188
22,CTAGCAAA,-0.0447
23,AAGGAGAT,-0.151
24,CCGCAGGC,0.104
25,CATTCGAC,0.0379

row,Sequence,PBM E-score
1,ACCCTACA,-0.0695
2,AAGCAGAA,-0.0753
3,AATTGGGC,-0.186
4,CCTAGTGC,-0.211
5,CTACGGCC,-0.0222
6,TGAATGCA,-0.145
7,CGTTCCCC,-0.014
8,CCGGAATC,0.38
9,CGGGGCAC,0.0761
10,ACGATTTA,-0.0313
11,GGAATCCA,0.0473
12,GGTAACGA,0.0242
13,ACGTATGA,-0.0216
14,AGGAAGGG,-0.186
15,ACTGTAGC,-0.197
16,AAAAAAAA,0.13
17,CTCTAGCA,-0.322
18,AATCTTGG,-0.197
19,CGGCCGTA,0.167
20,CCGCCAGG,-0.144
21,CAGTGAGC,-0.174
22,TCCTCCCA,-0.00836
23,CACCCACA,-0.15
24,CCACGGGA,0.223
25,GATTATCC,0.23

row,Sequence,PBM E-score
1,AGGTACAC,-0.0592
2,TAGACCCA,-0.174
3,CGCCCCCA,-0.155
4,GGAGCCAA,0.0271
5,GCCGGGGA,0.211
6,AACGCGGA,0.321
7,GCTACTAA,-0.116
8,ATAGCATA,-0.109
9,ATTAGGGG,-0.0642
10,AGGGGTTG,-0.217
11,ATGGTACA,-0.159
12,GAAGAAGC,-0.0404
13,TGCGACAA,-0.0541
14,ACCCGAAC,0.463
15,CTCTCCCC,0.0536
16,CGTCACGA,-0.0927
17,AGGCACTC,-0.0316
18,GCTTTTCA,-0.0237
19,CGGCTACA,0.269
20,AATAGATA,-0.03
21,AATGTTGT,-0.175
22,CTCGCGAG,-0.0385
23,GTCACGTA,-0.151
24,CGGTCCCA,0.107
25,CCGGCGAA,0.228

row,Sequence,PBM E-score
1,AGTAAGTA,-0.0589
2,ACCCTGTC,-0.0532
3,AATCCGGG,0.306
4,CACGCCGA,0.261
5,CTCTCTAC,-0.221
6,CCGACACG,0.297
7,ATGGGTGA,-0.0632
8,GTTCCACA,-0.00185
9,CGGTCGCA,-0.0174
10,GGGCACCA,-0.0509
11,ACTGGTTC,0.0823
12,CCGCTGCG,0.0615
13,ACTATTAT,0.113
14,GGAGCCAC,-0.0691
15,ATGGTCTC,0.0617
16,ATCGAGCA,-0.00212
17,CAAATGGG,-0.329
18,CGCAGGCA,-0.169
19,CCAACCAG,-0.0913
20,ATACGTAA,-0.17
21,AGCTCGAT,-0.0276
22,GATCTGGA,-0.036
23,GAAGCTAA,-0.00411
24,CTGTAAAA,-0.054
25,GCTACTCC,0.0762

row,Sequence,PBM E-score
1,ACAGTATA,-0.146
2,AAAAAATA,0.173
3,AGTTCTCA,-0.0891
4,TATACCAA,0.0776
5,CGGCGAAG,0.119
6,GTATTGAA,-0.0765
7,TCTGGCAA,-0.0461
8,GCTATCAA,0.0638
9,CGCGCGTA,0.0546
10,TGTCTCAA,-0.118
11,GTCTACCA,-0.162
12,AACAAATC,0.0948
13,AGGTTATG,-0.0172
14,GGCATGAA,0.0361
15,AATGTAAT,0.134
16,AGAACGCC,0.0271
17,CCGCGTCC,0.199
18,AATGCAAA,0.0144
19,GATTAACC,0.149
20,GGCATCTA,-0.0394
21,GGACGTCA,-0.116
22,ACAAACTA,-0.0819
23,ATTCTTAG,-0.249
24,ACACCCTG,-0.146
25,CCCCCGTC,-0.0446

row,Sequence,PBM E-score
1,AATTCTCG,0.149
2,AAATGGTA,-0.0634
3,CTTGATCC,0.173
4,AAAATGCC,-0.0192
5,CCTTAGAA,-0.251
6,GTTCACAA,-0.0259
7,ATTGACAC,-0.16
8,GCTCGCCC,-0.0865
9,AAATCTGC,-0.227
10,ACTGATAC,0.0597
11,CGGAAGGA,0.397
12,ATGGTTCA,-0.0571
13,GATAACTA,-0.0332
14,CTAGCATA,-0.0583
15,AACCCGTA,0.0725
16,AAGGAGTC,-0.12
17,CTGAGCGC,-0.234
18,CGTCCGGC,0.253
19,CCGGTTCA,0.151
